Blank lines part the entries; values can stand above or below the binder they belong to.
How the values were obtained:
cyno TfR AVI-His = target: T1, cyno TfR AVI-His (cyno, UniProt H9EXL1 89-760 (rhesus entry)); assay: ELISA, 1-30 ug/mL
T1 construct: control protein
Experimental: (§1) Blocking buffer was removed and human, cyno, or mouse Avi-His-tagged CD98hc and Avi-His-tagged human TfR polypeptides were added at 1 μg/ml in ELISA diluent and captured for 1 hour at room temperature. After washing three times with 300 μl of PBST (PBS+0.05% Tween20, Thermo 28352), the hybridoma cell culture supernatants or 1 μg/ml of commercially available purified mouse anti-human CD98hc monoclonal antibody (Sigma Aldrich, Cat #SAB 4700503) and rat anti-mouse CD98hc antibody (Bio-Rad Laboratories, Hercules, CA, Cat #MCA2684) were added (50 μl/well) to each well. After 30 minutes of incubation at room temperature, the plates were washed three times with 300 μl of PBST. […] After a final set of washes (3×300 μl in PBST), 50 μl/well of BioFx TMB substrate (Surmodics, Eden Praire, MN, Cat #TMBW-1000-01) was added to the wells. The reaction was then quenched after 5-10 mins with 50 μl/well of 2N sulfuric acid. The plates were read for absorbance at 450 nm on a SpectraMax M5 (Molecular Devices, Sunnyvale, CA) using SoftMax Pro software.
(§2) Purified 2+1 anti-CD98hc bispecific antibodies were screened for binding to human and cyno CD98hc by ELISA as in Example 6. Purified 2+1 bispecific antibodies were screened at concentrations ranging from 1-30 μg/mL. ELISA binding to human and cyno CD98 and control cyno TfR AVI-His tagged proteins as a ratio to secondary antibody alone were calculated, and values are listed in Table 10A. Purified 2+1 bispecific antibodies were also screened for their ability to bind CHO cells overexpressing human or mouse CD98hc or cells endogenously expressing human CD98hc by FACS. […] Data was acquired on a FACS Canto (BD Biosciences).

huCD98hc ECD Avi-His [1] = target: T2, huCD98hc ECD Avi-His (human, UniProt P08195 105-529); assay: ELISA, 1-30 ug/mL
T2 construct: biotinylated on the Avi tag where captured on streptavidin; also called Human CD98-AVI-His; Human CD98hc-AVI-His
T2 sequence: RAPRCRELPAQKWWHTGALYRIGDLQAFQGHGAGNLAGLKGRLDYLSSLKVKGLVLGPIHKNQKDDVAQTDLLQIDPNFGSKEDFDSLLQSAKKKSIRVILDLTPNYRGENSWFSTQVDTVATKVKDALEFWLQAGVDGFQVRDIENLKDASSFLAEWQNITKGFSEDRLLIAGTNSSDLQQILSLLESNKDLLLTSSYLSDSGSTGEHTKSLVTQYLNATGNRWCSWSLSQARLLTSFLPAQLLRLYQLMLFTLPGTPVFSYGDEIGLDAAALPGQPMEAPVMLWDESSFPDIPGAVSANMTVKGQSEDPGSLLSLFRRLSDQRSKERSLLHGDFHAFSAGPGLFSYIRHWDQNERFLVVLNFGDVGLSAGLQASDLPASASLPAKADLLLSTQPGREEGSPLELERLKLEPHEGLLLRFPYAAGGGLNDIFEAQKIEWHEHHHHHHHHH
Experimental: as §1, §2

Cyno CD98hc ECD Avi-His [2] = target: T3, Cyno CD98hc ECD Avi-His (cynomolgus macaque, UniProt P08195 105-529 (human entry)); assay: ELISA, 1-30 ug/mL
T3 construct: biotinylated on the Avi tag where captured on streptavidin; also called Cyno CD98-AVI-His; Cyno CD98hc-AVI-His
T3 chain: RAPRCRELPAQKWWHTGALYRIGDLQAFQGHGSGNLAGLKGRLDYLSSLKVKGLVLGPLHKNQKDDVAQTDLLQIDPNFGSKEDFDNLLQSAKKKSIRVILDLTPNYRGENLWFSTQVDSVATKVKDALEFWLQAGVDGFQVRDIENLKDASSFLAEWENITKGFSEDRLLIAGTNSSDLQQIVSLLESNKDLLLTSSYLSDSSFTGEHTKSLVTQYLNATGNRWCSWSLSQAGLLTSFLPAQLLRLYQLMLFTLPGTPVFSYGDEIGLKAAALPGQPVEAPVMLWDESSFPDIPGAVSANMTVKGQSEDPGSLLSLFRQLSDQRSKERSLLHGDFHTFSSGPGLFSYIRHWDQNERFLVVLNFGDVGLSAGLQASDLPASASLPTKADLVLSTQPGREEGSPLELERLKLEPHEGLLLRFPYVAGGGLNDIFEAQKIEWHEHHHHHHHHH
Experimental: as §1, §2

huCD98hc ECD Avi-His [3] = target: T2, huCD98hc ECD Avi-His; assay: SPR, Carterra LSA, antibody immobilized
Cyno CD98hc ECD Avi-His [4] = target: T3, Cyno CD98hc ECD Avi-His; assay: SPR, Carterra LSA, antibody immobilized

Sequence of cyno TfR AVI-His (chain, as listed by the source): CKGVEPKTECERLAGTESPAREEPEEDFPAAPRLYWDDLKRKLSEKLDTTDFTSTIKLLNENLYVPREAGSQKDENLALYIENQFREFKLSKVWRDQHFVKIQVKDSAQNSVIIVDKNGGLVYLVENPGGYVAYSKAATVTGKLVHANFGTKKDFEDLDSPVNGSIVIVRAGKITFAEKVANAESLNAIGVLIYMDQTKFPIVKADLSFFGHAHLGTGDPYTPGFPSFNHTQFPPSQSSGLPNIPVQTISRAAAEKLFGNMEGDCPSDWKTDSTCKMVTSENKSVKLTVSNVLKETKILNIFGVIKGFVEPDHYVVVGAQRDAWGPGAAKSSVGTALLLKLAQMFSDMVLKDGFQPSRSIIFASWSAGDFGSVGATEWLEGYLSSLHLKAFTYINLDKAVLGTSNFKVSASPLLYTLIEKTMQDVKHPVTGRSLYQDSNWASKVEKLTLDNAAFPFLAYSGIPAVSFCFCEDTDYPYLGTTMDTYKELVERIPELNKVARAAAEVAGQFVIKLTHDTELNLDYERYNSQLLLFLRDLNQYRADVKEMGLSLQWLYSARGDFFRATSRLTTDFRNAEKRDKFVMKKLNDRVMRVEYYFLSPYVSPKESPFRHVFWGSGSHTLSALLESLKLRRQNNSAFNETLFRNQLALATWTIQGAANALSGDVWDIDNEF

ELISA ratio to 2nd only (cyno TfR AVI-His): 1
ELISA ratio to 2nd only (huCD98hc ECD Avi-His [1]): 38
ELISA ratio to 2nd only (Cyno CD98hc ECD Avi-His [2]): 16
Kd (huCD98hc ECD Avi-His [3]): 4.3 nM
Kd (Cyno CD98hc ECD Avi-His [4]): 20 nM
B1: CD98hc.05.006 (2+1 bispecific antibody) (bispecific antibody)
heavy 1: EVRLLESGGGLVQPGGSLRLSCAASGFTFSNYAMGWVRQAPGKGLEWVSAISGSGGSTYYADSVKGRFTTSRDDSKNALYLQMNSLRAEDTAVYYCARGGPGWYAADVWGQGTTVTVSSASTKGPSVFPLAPSSKSTSGGTAALGCLVKDYFPEPVTVSWNSGALTSGVHTFPAVLQSSGLYSLSSVVTVPSSSLGTQTYICNVNHKPSNTKVDKKV[here human IgG1 Fc with changes without letters]GGGGSGGGGSGGGGSEVKLVESGGNLVQPGGSLKLSCAASGFTFSGYSMSWVRQTPDKRLEWVAYIGNGGDSTYYPYTVKGRFTISRDNAKNTLYLQMNSLKSEDSAMYYCARQYVNYPFFDYWGQGTTLTVSSGGSEGKSSGSGSESKSTGGSDIVMSQSPSSLTVSVGAKIILGCKSSQSLLYSGNQKNYLAWYQQKPGQSPKLLIYWASTRESGVPDRFTGSGSGTDFTLTISSVKAEDVAVYYCQQYYTYPPAFGAGTKLEIK
heavy 2: EVRLLESGGGLVQPGGSLRLSCAASGFTFSNYAMGWVRQAPGKGLEWVSAISGSGGSTYYADSVKGRFTTSRDDSKNALYLQMNSLRAEDTAVYYCARGGPGWYAADVWGQGTTVTVSS[here human IgG1 constant region with changes without letters]
light: DIQMTQSPSSLSASVGDRVTITCRASQSISSYLNWYQQKPGKAPKLLIYAASSLQSGVPSRFSGSGSGTDFTLTISSLQPEDFATYYCQQADLPAFAFGGGTKVEIKRTVAAPSVFIFPPSDEQLKSGTASVVCLLNNFYPREAKVQWKVDNALQSGNSQESVTEQDSKDSTYSLSSTLTLSKADYEKHKVYACEVTHQGLSSPVTKSFNRGEC

ELISA ratio to 2nd only (cyno TfR AVI-His): 1
ELISA ratio to 2nd only (huCD98hc ECD Avi-His [1]): 17
ELISA ratio to 2nd only (Cyno CD98hc ECD Avi-His [2]): 1
Kd (huCD98hc ECD Avi-His [3]): 27 nM
B2: CD98hc.05.188 (2+1 bispecific antibody) (bispecific antibody)
heavy 1: EVRLLESGGGLVQPGGSLRLSCAASGFTFSNYAMGWVRQAPGKGLEWVSAISGSGGSTYYADSVKGRFTTSRDDSKNALYLQMNSLRAEDTAVYYCARGGPGWYAADVWGQGTTVTVSSASTKGPSVFPLAPSSKSTSGGTAALGCLVKDYFPEPVTVSWNSGALTSGVHTFPAVLQSSGLYSLSSVVTVPSSSLGTQTYICNVNHKPSNTKVDKKV[here human IgG1 Fc with changes without letters]GGGGSGGGGSGGGGSQVQLQQPGAELVRPGASVKLSCKASGYTFTSYWMSWVKQRPGQGLEWIGFITPSDSEALYSQMFKDKATLTVDKSSSTAHLQLSSLTSEDSAVYYCARWSYGNFAAMDYWGQGTSVTVSSGGSEGKSSGSGSESKSTGGSDIVMTQSPSSLAMSVGQKVTMSCKSSQSLLNSNNQKNYLAWYQQKPGQSPKLLVYFSSTRESGVPDRFIGSGSGTDFTLTITSVQAEDLADYFCQQHYSTPLTFGAGTKLEIK
heavy 2: EVRLLESGGGLVQPGGSLRLSCAASGFTFSNYAMGWVRQAPGKGLEWVSAISGSGGSTYYADSVKGRFTTSRDDSKNALYLQMNSLRAEDTAVYYCARGGPGWYAADVWGQGTTVTVSS[here human IgG1 constant region with changes without letters]
light: B1 light

Kd (huCD98hc ECD Avi-His [3]): 23 nM
Kd (Cyno CD98hc ECD Avi-His [4]): 49 nM
B3: CD98hc.04.062 (2+1 bispecific antibody) (bispecific antibody)
heavy 1: EVRLLESGGGLVQPGGSLRLSCAASGFTFSNYAMGWVRQAPGKGLEWVSAISGSGGSTYYADSVKGRFTTSRDDSKNALYLQMNSLRAEDTAVYYCARGGPGWYAADVWGQGTTVTVSSASTKGPSVFPLAPSSKSTSGGTAALGCLVKDYFPEPVTVSWNSGALTSGVHTFPAVLQSSGLYSLSSVVTVPSSSLGTQTYICNVNHKPSNTKVDKKV[here human IgG1 Fc with changes without letters]GGGGSGGGGSGGGGSEVQLVESGGDLVKPGGSLKLSCTASRFAFSTYDMSWVRQTPEKRLEWVAYISSGGGSTYFPDTVKGRFTISRDNAKNTLYLQMSSLKSEDTAMYYCARQDGHYPWFPYWGQGTLVTVSAGGSEGKSSGSGSESKSTGGSDIVMSQSPSSLAVSVGEKVTMSCKSSQSLLYSGNQKTYLAWYQQKPGQSPKPLIYWASTRESGIPDRFTGSGSGTDFTLTISSVKAEDLAVYYCQQYYSYPPTFGAGTKLELK
heavy 2: EVRLLESGGGLVQPGGSLRLSCAASGFTFSNYAMGWVRQAPGKGLEWVSAISGSGGSTYYADSVKGRFTTSRDDSKNALYLQMNSLRAEDTAVYYCARGGPGWYAADVWGQGTTVTVSS[here human IgG1 constant region with changes without letters]
light: B1 light

ELISA ratio to 2nd only (cyno TfR AVI-His): 1
ELISA ratio to 2nd only (huCD98hc ECD Avi-His [1]): 25
ELISA ratio to 2nd only (Cyno CD98hc ECD Avi-His [2]): 6
Kd (Cyno CD98hc ECD Avi-His [4]): 80 nM
B4: CD98hc.05.081 (2+1 bispecific antibody) (bispecific antibody)
heavy 1: EVRLLESGGGLVQPGGSLRLSCAASGFTFSNYAMGWVRQAPGKGLEWVSAISGSGGSTYYADSVKGRFTTSRDDSKNALYLQMNSLRAEDTAVYYCARGGPGWYAADVWGQGTTVTVSSASTKGPSVFPLAPSSKSTSGGTAALGCLVKDYFPEPVTVSWNSGALTSGVHTFPAVLQSSGLYSLSSVVTVPSSSLGTQTYICNVNHKPSNTKVDKKV[here human IgG1 Fc with changes without letters]GGGGSGGGGSGGGGSEVQLQQSRPELVKPGASVKMSCKASGYTFTSYVMHWVKQKPGQGLEWIGYISPYNGDTKYNEKFKGKATLTSDISSTTAYMELSSLTSEDSGVYYCARPGSSPSWFAYWGQGTLVTVSSGGSEGKSSGSGSESKSTGGSDIVMTQFPATLSVTPGDRVSLSCRASQSISNYLHWYQQKSHESPRLLIKYASQSISGIPSRFSGSGSGSDFTLSINSVEPEDVGVYYCQNGHSFPYMYTFGGGTKLEIK
heavy 2: EVRLLESGGGLVQPGGSLRLSCAASGFTFSNYAMGWVRQAPGKGLEWVSAISGSGGSTYYADSVKGRFTTSRDDSKNALYLQMNSLRAEDTAVYYCARGGPGWYAADVWGQGTTVTVSS[here human IgG1 constant region with changes without letters]
light: B1 light

ELISA ratio to 2nd only (cyno TfR AVI-His): 1
ELISA ratio to 2nd only (huCD98hc ECD Avi-His [1]): 36
ELISA ratio to 2nd only (Cyno CD98hc ECD Avi-His [2]): 14
Kd (huCD98hc ECD Avi-His [3]): 7.5 nM
Kd (Cyno CD98hc ECD Avi-His [4]): 23 nM
B5: CD98hc.05.126 (2+1 bispecific antibody) (bispecific antibody)
heavy 1: EVRLLESGGGLVQPGGSLRLSCAASGFTFSNYAMGWVRQAPGKGLEWVSAISGSGGSTYYADSVKGRFTTSRDDSKNALYLQMNSLRAEDTAVYYCARGGPGWYAADVWGQGTTVTVSSASTKGPSVFPLAPSSKSTSGGTAALGCLVKDYFPEPVTVSWNSGALTSGVHTFPAVLQSSGLYSLSSVVTVPSSSLGTQTYICNVNHKPSNTKVDKKV[here human IgG1 Fc with changes without letters]GGGGSGGGGSGGGGSEVKLVESGGNLVQPGGSLKLSCAASGFTFSGYPMSWVRRTPDKRLEWVAYIGSGGDSTYYPYAVKGRFTISRDNAKNTLYLQMNSLKSEDSAMYYCARQYDNYPFFDYWGQGTTLTVSSGGSEGKSSGSGSESKSTGGSDFVMSQSPSSLTVSVGAKVIMSCKSSQSLLYSGNQKNYLAWYQQKPGQSPKLLIYWASTRESGVPDRFTGSGSGTDFTLTISSVKAEDLAVYYCQQYYTYPPTFGAGTKLEIK
heavy 2: EVRLLESGGGLVQPGGSLRLSCAASGFTFSNYAMGWVRQAPGKGLEWVSAISGSGGSTYYADSVKGRFTTSRDDSKNALYLQMNSLRAEDTAVYYCARGGPGWYAADVWGQGTTVTVSS[here human IgG1 constant region with changes without letters]
light: B1 light

Reference: patent US20250270341A1 (Alector, published 2025)
